In PubChem BioAssay (NCATS):
Inconclusive results, whose numbers are uncertain, are shown with a selection of clear calls. For some assays here: Potencies of inconclusive entries are left out as doubtful fits. Calls of active or inactive are those of the source. Unless noted, the call rests on the fitted dose curve; in most records, active means well fitted curve in the direction sought with a large enough effect; inconclusive means small, poorly fitted or top-dose-only effect, or another doubt; inactive means no such curve, though single readings can be large; an effect the other way counts as inactive or inconclusive.

Columns and labels:
[1] = target: Endonuclease 4 (Escherichia coli (strain K12)) (UniProt P0A6C1); assay: Counterscreen for APE1 Inhibitors: qHTS Validation Assay for Inhibitors of Endonuclease IV (AID 1708); further: potency means the concentration at half of the fitted maximal effect; on activity change, negative = inhibition: on the % scale 0 is the no-effect control and ±100 the full control effect
How it was run: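 Measured as reaction progress, the fluorescence gain between first and third kinetic reads after adding 50 nM TAMRA/BHQ-2 THF duplex to 2 nM enzyme preincubated 15 min with compound; 2 mM MgCl2, pH 7.5.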

[2] = qHTS for differential inhibitors of proliferation of Plasmodium falciparum line 7G8 (AID 1815);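 further: potency means the concentration at half of the fitted maximal effect; parasite growth measured after three days of incubation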
[3] = qHTS for differential inhibitors of proliferation of Plasmodium falciparum line GB4 (AID 1816); conditions: Potency: Plasmodium falciparum GB4 proliferation inhibition;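 further: potency means the concentration at half of the fitted maximal effect; parasite growth measured after 72 h incubation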
[4] = qHTS for differential inhibitors of proliferation of Plasmodium falciparum line 3D7 (AID 1876); further: potency means the concentration at half of the fitted maximal effect
[5] = qHTS for differential inhibitors of proliferation of Plasmodium falciparum line D10 (AID 1877);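 further: parasites grown with compound for 72 h before DNA staining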; further: potency means the concentration at half of the fitted maximal effect;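 on activity change, negative = inhibition: plate controls were vehicle wells for no effect and reference inhibitor wells for full effect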
[6] = qHTS for differential inhibitors of proliferation of Plasmodium falciparum line Dd2 (AID 1882); conditions: Potency: Plasmodium falciparum Dd2 proliferation inhibition; further: potency means the concentration at half of the fitted maximal effect; nearly all actives have a fitted effect of over 65% in size
How it was run: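 RBC culture, 0.3% parasitemia / 2.5% Hct final; cpd added by pin tool in DMSO; 72 h, 37 C, 5% CO2; lysis buffer + SYBR Green I, o/n RT dark; FI 485/535; norm. to artemisinin 0.29 uM and DMSO.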

[7] = qHTS for differential inhibitors of proliferation of Plasmodium falciparum line W2 (AID 1883); conditions: Potency: Plasmodium falciparum W2 proliferation inhibition;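 further: potency means the concentration at half of the fitted maximal effect; parasites grown with compound for 72 h before lysis and staining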
[8] = qHTS for differential inhibitors of proliferation of Plasmodium falciparum line HB3 (AID 1886); conditions: Potency: Plasmodium falciparum HB3 proliferation inhibition;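 further: potency means the concentration at half of the fitted maximal effect; parasites grown with compound for 72 h before SYBR Green readout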
[9] = target: RecQ-like DNA helicase BLM (Homo sapiens) (UniProt P54132); assay: qHTS Validation Assay for Inhibitors of Bloom's syndrome helicase (BLM) (AID 2364); further: potency means the concentration at half of the fitted maximal effect
How it was run: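 BLM 50 nM in 25 mM Tris-HCl pH 8.0, 5 mM NaCl, 2 mM MgCl2, 1 mM DTT, 0.01% Tween-20, 2.5 ug/ml poly(dI-dC); 15 min cpd preinc, RT. Start: 200 nM forked DNA + 2 mM ATP (final). TAMRA read, 2 reads 2 h apart.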

[10] = qHTS Assay for Modulators of Human Peripheral Myelin Protein 22 (PMP22) Expression/Activity (AID 1967; active means well fitted curve in the direction sought with a large enough effect in the signal ratio; inconclusive means small, poorly fitted or top-dose-only effect, or effect the other way, or a change in a side signal; inactive means no such curve, though single readings can be large or run the other way; the % refers to the signal ratio;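 further: 0% = untreated cells and 100% end not stated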); conditions: Cell-based PMP22 reporter, dual-color luciferase ratio, mouse Pmp22 promoter in mouse Schwann cells; activity change (ratio): at 115 µM (top of the series), 0% = compound-free control cells
How it was run: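 Engineered MSC80 cells, Pmp22-promoter green and EF-alpha red luciferase reporters; 24h compound treatment at 37 °C. Concentration-response fits on green, red and ratio signals, each overlap-corrected, with %Activity normalized to untreated wells.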

[11] = Cytometry Cell-Based qHTS for Inhibitors of the mTORC1 Signaling Pathway in MEF cells (AID 2668); conditions: mTORC1 pathway readout; at 38.3 µM (top of the series);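 further: Tsc2-/- p53-/- mouse embryonic fibroblasts stably re-expressing wild-type Tsc2; percent cells positive for phospho-rpS6 Ser235/236 relative to propidium iodide stain; plate controls were DMSO wells for no effect and 7.5 nM rapamycin control wells for full effect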
How it was run: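 In MEFs grown in DMEM + 10% FBS, a 24 hrs compound exposure preceded imaging of phospho-rpS6 Ser235/236 by laser-scanning cytometry.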

[12] = target: ATP-dependent 6-phosphofructokinase (Trypanosoma brucei brucei) (UniProt O15648); assay: qHTS Validation Assay to Find Inhibitors of T. brucei phosphofructokinase (AID 485368)
How it was run: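 ADP-Glo luminescence, two-step: residual ATP depleted, then ADP converted to ATP for luciferase. Enzyme 1.25 nM, F6P 0.5 mM, ATP 0.1 mM, pH 8.0 TEA buffer, 45 min RT. Curves fitted and classed by quality and efficacy.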

[13] = Quantitative high throughput screen for delayed death inhibitors of the malarial parasite plastid, 48 hour incubation (AID 488752); further: nearly all actives have a fitted effect of over 65% in size; further: potency means the concentration at half of the fitted maximal effect; on activity change, negative = inhibition: on the % scale 0 is the no-effect control and ±100 the full control effect
How it was run: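 Cultures: infected erythrocytes at final 2% hematocrit and 0.1% parasitemia in Albumax-supplemented RPMI. Parasites express integrated firefly luciferase. Incubation with compound lasts 48 h before luminescent detection of remaining reporter activity.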

[14] = qHTS for Inhibitors of ATXN expression: Validation (AID 588378); conditions: cell-based ATXN2 expression reporter assay, luminescence; at 57.1 µM (top of the series); further: on the % scale 0 is the no-effect control and ±100 the full control effect; nearly all actives have a fitted effect of over 75% in size
How it was run: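 After a 2 h attachment and 24 h compound incubation, HEK293-ATXN2-FFLuc wells are read for fluorescence at 405 nm excitation/525 nm emission as a viability measure, then for Bright-Glo luminescence reflecting ATXN2 expression.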

[15] = qHTS for Activators of Parkin Expression: LOPAC Validation Assay (NLuc Reporter) (AID 720572;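 further: 0% = DMSO and 100% = positive control compound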); conditions: Parkin promoter NanoLuc reporter cells, luminescence, percent of positive control, DMSO as zero; at 46.1 µM (top of the series)
How it was run: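 Cells harboring the Parkin-promoter coincidence reporter were treated for 24 h at seven concentrations. NLuc output was measured sequentially after the FLuc channel and scaled between DMSO and positive control values.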

[16] = target: DNA repair nuclease/redox regulator APEX1 (Homo sapiens) (UniProt P27695); assay: qHTS Validation Assay for Inhibitors of the Human Apurinic/apyrimidinic Endonuclease 1 (APE1) (AID 1705; further: potency means the concentration at half of the fitted maximal effect)
How it was run: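 Substrate: 50 nM final fluorophore/quencher THF-abasic duplex. Enzyme preincubated with compounds 15 min, RT. Progress derived from fluorescence difference, third minus first kinetic read.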

[17] = target: ATP-dependent DNA helicase Q1 (Homo sapiens) (UniProt P46063); assay: qHTS Validation Assay for Inhibitors of RecQ-Like Dna Helicase 1 (RECQ1) (AID 2353); conditions: recombinant RECQ1 helicase DNA unwinding assay; further: potency means the concentration at half of the fitted maximal effect
How it was run: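 RECQ1T1 50 nM; forked duplex (20 bp + 30-nt ss tails) 200 nM, ATP 2 mM final; pH 8.0, 2 mM MgCl2, 2.5 ug/ml poly(dI-dC); 15 min compound preincubation; discontinuous kinetic read over 2 h at RT.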

[18] = Quantitative high throughput screen for delayed death inhibitors of the malarial parasite plastid, 96 hour incubation (AID 488745); further: nearly all actives have a fitted effect of over 70% in size; further: potency means the concentration at half of the fitted maximal effect; on activity change, negative = inhibition: on the % scale 0 is the no-effect control and ±100 the full control effect
How it was run: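 Two-generation (96 h) exposure of luciferase-reporter P. falciparum in erythrocytes, 2% hematocrit, 0.1% parasitemia final, 37 C, 5% CO2, RPMI 1640 with 0.5% Albumax. Growth inhibition scored by reduced luminescence.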

[19] = qHTS for Inhibitors of Ubiquitin-specific Protease USP2a Using CHOP2 as the Reporter: Cytotox Assay (AID 652170); conditions: HCT116 viability, CellTiter-Glo luminescence, 72 h; at 46.1 µM (top of the series);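 further: HCT116 human colon cancer cells at 600 per well; plate controls were DMSO-treated cells for no effect and wells without cells for full effect; nearly all actives have a fitted effect of over 70% in size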
How it was run: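 Cytotoxicity read as ATP luminescence (CellTiter-Glo) after 72 hr compound treatment at 37 deg C. Cells: HCT116, 600/well in DMEM plus 10% FBS. Normalization between DMSO-treated cells and cell-free wells.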

[20] = target: Rap guanine nucleotide exchange factor 3 (Homo sapiens) (UniProt O95398); assay: Counterscreen qHTS for agonist of cAMP-regulated guanine nucleotide exchange factor 3 (EPAC1) (AID 1645889); conditions: EPAC1 Rap1B-BODIPY-GDP exchange, fluorescence; activation: at 154 µM (top of the series) unless noted; further: nearly all actives have a fitted effect of over 40% in size; further: potency means the concentration at half of the fitted maximal effect; on activation: % of control where 0% means no effect
How it was run: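 Measured: fluorescence of BODIPY-GDP bound to Rap1B, which falls as exchange proceeds. Conditions include 50 uM competing GDP, 5 and 30 min reads, and a later cAMP challenge for antagonist detection.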

[21] = target: Cytochrome P450 3A4 (Homo sapiens) (UniProt P08684); assay: qHTS Assay for Activators of Cytochrome P450 3A4 (AID 885); further: nearly all actives have a fitted effect of over 65% in size
How it was run: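 Luminescent readout of luciferin formed from 25 uM Luciferin-PPXE (KM level) by 20 nM CYP3A4 in 200 mM KPO4, with 60 min NADPH-driven reaction at room temperature after 10 min compound exposure. Ketoconazole (57 uM) defined 100% inhibition.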

[22] = qHTS Assay for Identification of Small Molecule Antagonists for NFkB Signaling Pathway (AID 895; active means well fitted inhibition curve with a large enough effect in the signal ratio, with a control signal flat, not every such curve was filed as active; inconclusive means small, poorly fitted or top-dose-only effect, or effect the other way, or a change in a side signal; the % refers to the signal ratio; further: potency means the concentration at half of the fitted maximal effect); conditions: NFkB beta-lactamase reporter cells, FRET ratio 460/530, stimulated with 10 pM TNF alpha; activity change, negative = inhibition: at 38.3 µM (top of the series)
How it was run: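 NFkB-bla ME-180 cervical carcinoma cells with beta-lactamase reporter under NFkB response element; compounds added, then TNF alpha at 10 pM final (EC50), 5 h at 37 C. LiveBLAzer substrate 2 h, room temperature; emission 460/530 nm at 405 nm excitation.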

[23] = qHTS Assay for Identification of Small Molecule Agonists for NFkB Signaling Pathway (AID 928; calls by dose curve); conditions: NFkB beta-lactamase reporter cells, blue/green ratio
How it was run: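 Activators were sought with TNF alpha co-added at 10 pM final (its EC50) to beta-lactamase reporter cells. Cells were plated in OPTI MEM with 0.5% FBS and exposed for 5 hrs at 37 C. The FRET substrate ratio was read at 460 and 530 nm.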

[24] = Validation screen for small molecules that induce DNA re-replication in MCF 10A normal breast cells (AID 463097); further: 0% is about no effect; nearly all actives have a fitted effect of over 60% in size
How it was run: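 Following 48 hr compound incubation (37 C, 5% CO2), MCF 10A cells receive Hoechst for 40 min at 37 C. Nuclei are then scanned (excitation 405 nm, emission 500-530 nm) for total fluorescence intensity.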

[25] = target: Luciferin 4-monooxygenase (Photinus pyralis) (UniProt P08659); assay: qHTS screen for small molecules that inhibit ELG1-dependent DNA repair: Hit Confirmation in Biochemical Luciferin Assay (AID 624253); further: potency means the concentration at half of the fitted maximal effect
How it was run: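 Cell-free hit confirmation using firefly luciferase; light output measured by CCD imaging.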

[26] = target: Bifunctional 3'-5' exonuclease/ATP-dependent helicase WRN (Homo sapiens) (UniProt Q14191); assay: qHTS for Inhibitors of WRN Helicase: Confirmatory Assay for Cherry-picked Compounds. (AID 720497); further: potency means the concentration at half of the fitted maximal effect; nearly all actives have a fitted effect of over 65% in size
How it was run: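 Compound and 20 nM WRN incubated 15 min, RT. Forked duplex (100 nM) plus ATP (2 mM) added. Fluorescence monitored kinetically and normalized to controls.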
Tags describe the fitted curve by direction and shape or compound fluorescence and quenching.

UniProt P54132, sequence (P54132 whole entry, looked up): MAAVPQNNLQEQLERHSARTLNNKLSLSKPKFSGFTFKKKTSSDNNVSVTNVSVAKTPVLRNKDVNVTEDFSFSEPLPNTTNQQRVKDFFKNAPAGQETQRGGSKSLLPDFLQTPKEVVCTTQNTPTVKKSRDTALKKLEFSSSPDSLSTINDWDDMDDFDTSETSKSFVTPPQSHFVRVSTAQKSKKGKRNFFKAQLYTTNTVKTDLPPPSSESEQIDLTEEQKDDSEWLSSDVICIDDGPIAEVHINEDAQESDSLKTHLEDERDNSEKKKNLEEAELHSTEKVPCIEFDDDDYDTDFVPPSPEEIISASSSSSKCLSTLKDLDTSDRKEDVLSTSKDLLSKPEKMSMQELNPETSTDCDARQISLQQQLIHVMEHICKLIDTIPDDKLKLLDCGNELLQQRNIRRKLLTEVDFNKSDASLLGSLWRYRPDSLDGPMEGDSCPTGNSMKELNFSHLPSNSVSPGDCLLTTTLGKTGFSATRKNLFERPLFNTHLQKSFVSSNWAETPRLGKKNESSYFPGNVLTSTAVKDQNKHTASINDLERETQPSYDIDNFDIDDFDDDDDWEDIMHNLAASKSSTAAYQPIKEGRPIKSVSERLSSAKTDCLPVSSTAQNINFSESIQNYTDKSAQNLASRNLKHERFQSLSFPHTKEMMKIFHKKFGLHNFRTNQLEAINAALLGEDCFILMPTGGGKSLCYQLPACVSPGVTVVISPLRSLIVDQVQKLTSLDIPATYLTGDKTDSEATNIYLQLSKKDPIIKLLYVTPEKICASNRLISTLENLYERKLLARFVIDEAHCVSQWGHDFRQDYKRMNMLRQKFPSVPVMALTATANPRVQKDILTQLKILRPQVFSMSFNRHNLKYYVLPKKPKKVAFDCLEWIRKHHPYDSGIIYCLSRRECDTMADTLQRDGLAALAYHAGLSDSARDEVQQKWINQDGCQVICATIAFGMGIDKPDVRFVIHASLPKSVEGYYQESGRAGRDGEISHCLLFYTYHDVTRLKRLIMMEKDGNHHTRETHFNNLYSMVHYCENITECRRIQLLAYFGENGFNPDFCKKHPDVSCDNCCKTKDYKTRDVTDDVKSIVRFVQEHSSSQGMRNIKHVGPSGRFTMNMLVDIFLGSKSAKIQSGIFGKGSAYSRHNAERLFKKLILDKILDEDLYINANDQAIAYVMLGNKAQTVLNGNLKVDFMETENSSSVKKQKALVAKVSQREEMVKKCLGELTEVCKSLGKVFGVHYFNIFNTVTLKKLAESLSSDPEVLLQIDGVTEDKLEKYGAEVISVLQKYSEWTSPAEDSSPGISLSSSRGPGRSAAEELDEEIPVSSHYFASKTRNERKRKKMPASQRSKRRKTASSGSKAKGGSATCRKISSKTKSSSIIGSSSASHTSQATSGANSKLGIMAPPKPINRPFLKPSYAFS
UniProt O95398, sequence (O95398 whole entry, looked up): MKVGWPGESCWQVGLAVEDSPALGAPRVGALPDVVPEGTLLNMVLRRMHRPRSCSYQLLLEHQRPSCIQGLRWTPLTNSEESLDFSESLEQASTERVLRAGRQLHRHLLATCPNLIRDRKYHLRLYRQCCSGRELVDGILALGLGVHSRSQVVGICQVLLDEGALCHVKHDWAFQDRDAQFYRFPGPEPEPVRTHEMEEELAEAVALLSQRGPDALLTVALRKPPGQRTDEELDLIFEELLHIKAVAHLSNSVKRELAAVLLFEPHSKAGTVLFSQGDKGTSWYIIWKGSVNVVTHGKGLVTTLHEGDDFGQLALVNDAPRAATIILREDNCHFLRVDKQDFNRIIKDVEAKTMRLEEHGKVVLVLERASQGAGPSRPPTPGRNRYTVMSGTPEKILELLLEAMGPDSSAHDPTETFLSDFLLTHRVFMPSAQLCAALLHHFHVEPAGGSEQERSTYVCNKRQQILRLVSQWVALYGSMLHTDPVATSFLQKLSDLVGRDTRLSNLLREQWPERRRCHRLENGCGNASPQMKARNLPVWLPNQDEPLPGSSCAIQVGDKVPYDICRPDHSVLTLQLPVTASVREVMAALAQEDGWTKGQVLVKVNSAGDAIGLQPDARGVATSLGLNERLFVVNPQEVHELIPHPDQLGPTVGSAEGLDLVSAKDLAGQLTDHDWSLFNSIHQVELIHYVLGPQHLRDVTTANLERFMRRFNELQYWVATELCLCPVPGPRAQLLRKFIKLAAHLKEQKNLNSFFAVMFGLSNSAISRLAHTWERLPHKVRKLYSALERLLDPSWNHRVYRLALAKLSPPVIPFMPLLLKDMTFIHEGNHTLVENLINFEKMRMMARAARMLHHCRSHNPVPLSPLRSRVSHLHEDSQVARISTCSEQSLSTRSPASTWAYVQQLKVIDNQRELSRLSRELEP
UniProt P27695, sequence (P27695 whole entry, looked up): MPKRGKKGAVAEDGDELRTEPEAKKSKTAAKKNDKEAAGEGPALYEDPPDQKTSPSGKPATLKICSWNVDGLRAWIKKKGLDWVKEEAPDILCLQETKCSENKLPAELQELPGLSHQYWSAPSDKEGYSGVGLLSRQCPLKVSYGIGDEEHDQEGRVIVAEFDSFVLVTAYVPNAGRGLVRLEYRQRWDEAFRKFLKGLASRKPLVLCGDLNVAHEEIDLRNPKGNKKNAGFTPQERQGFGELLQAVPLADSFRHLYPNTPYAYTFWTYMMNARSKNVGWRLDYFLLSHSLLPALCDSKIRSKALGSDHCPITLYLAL
UniProt Q14191, sequence (Q14191 whole entry, looked up): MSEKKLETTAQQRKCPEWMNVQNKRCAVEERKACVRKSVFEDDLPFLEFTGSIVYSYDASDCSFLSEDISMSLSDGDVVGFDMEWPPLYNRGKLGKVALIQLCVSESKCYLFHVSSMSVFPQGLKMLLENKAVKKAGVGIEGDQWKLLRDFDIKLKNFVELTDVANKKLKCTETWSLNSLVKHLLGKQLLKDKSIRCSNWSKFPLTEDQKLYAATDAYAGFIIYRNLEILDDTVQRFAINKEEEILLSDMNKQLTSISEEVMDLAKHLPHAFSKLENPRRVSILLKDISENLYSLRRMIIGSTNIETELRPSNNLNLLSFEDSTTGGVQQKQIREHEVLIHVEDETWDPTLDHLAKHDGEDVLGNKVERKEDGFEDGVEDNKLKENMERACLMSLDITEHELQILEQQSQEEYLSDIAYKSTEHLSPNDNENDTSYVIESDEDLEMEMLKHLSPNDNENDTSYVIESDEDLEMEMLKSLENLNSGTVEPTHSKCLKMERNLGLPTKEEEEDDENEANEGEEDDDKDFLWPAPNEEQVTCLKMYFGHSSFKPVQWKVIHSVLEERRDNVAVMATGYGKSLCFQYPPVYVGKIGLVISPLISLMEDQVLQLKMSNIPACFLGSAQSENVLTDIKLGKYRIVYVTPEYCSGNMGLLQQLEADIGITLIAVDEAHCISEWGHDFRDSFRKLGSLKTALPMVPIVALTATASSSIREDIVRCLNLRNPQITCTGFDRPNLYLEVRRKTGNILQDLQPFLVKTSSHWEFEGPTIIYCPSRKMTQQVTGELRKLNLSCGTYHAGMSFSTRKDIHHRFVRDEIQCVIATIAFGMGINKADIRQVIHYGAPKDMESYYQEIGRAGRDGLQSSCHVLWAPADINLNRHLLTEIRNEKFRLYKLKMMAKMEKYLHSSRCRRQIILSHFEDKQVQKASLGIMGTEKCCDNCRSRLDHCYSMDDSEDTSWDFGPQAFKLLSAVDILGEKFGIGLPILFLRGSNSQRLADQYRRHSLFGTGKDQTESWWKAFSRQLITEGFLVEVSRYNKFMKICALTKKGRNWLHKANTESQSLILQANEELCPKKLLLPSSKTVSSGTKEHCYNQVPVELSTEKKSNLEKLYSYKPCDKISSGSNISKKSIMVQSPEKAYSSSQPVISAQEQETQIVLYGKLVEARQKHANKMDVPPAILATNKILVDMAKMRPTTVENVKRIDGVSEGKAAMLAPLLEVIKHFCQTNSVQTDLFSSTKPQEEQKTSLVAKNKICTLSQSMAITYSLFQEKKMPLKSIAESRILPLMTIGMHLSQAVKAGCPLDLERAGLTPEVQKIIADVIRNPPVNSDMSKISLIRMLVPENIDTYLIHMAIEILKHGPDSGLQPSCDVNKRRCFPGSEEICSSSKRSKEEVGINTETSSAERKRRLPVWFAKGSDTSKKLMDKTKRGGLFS
UniProt O15648, sequence (O15648 whole entry, looked up): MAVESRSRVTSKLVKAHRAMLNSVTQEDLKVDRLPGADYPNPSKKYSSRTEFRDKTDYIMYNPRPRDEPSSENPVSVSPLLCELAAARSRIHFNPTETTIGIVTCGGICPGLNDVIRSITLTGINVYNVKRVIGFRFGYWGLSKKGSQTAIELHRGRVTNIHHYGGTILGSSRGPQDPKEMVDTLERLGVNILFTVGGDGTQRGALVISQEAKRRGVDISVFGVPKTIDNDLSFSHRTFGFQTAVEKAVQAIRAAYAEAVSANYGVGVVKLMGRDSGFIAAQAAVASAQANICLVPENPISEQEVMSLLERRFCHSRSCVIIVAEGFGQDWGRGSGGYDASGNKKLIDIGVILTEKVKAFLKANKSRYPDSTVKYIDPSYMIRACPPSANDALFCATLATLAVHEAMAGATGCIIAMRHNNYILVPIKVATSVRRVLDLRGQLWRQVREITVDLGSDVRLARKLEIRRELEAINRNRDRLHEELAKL
UniProt P08684, sequence (P08684 whole entry, looked up): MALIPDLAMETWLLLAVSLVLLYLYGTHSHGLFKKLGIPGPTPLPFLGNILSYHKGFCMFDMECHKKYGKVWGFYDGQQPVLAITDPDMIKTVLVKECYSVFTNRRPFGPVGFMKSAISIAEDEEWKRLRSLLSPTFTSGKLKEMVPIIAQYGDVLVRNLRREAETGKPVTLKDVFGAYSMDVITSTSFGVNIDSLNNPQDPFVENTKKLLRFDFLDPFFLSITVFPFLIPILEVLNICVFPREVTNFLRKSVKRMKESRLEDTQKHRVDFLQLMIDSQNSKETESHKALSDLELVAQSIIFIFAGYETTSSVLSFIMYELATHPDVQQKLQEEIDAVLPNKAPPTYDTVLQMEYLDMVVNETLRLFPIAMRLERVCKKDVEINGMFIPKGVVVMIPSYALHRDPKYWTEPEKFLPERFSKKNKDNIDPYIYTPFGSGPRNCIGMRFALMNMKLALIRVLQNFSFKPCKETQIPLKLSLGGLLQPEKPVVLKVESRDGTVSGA

## Nc1nc(Nc2ccccc2)nc2c1ncn2[C@@H]1O[C@H](CO)[C@H](O)[C@H]1O
[1]
  Potency: inactive
[2]
  Potency: inconclusive [inhibitor, partial curve, poor fit]
[3]
  Potency: inconclusive [inhibitor, partial curve, poor fit]
[4]
  Potency: inconclusive [inhibitor, partial curve]
[5]
  Potency: inconclusive [inhibitor, partial curve]
[6]
  Potency: inconclusive [inhibitor, partial curve]
[7]
  Potency: inconclusive [inhibitor, partial curve]
[8]
  Potency: inconclusive [inhibitor, partial curve]
[9]
  Potency: inconclusive [inhibitor, full curve]

## N=S(=O)(O)Cc1noc2ccccc12
[1]
  Potency: inconclusive [inhibitor, full curve, poor fit]
[2]
  Potency: inconclusive [inhibitor, partial curve]
[3]
  Potency: inconclusive [inhibitor, partial curve]
[7]
  Potency: inconclusive [inhibitor, partial curve, poor fit]
[10]
  Potency: inactive
[9]
  Potency: inconclusive [inhibitor, partial curve]
[11]
  activity change, negative = inhibition: inactive: -1.96%
[12]
  Potency: inactive
[13]
  Potency: inactive
[14]
  activity change, negative = inhibition: inactive: -1.56%
[15]
  activation: inactive: -5.5%

## C=C/C(C)=C/[C@@]1(C)SC(=O)C(C)=C1O
[16]
  Potency: active: 1 µM
[1]
  Potency: inconclusive [inhibitor, full curve]
[2]
  Potency: inconclusive [inhibitor, partial curve, poor fit]
[5]
  Potency: inactive
[17]
  Potency: active: 8.91 µM
[9]
  Potency: inconclusive [inhibitor, full curve, poor fit]
[18]
  Potency: inactive

## O=C(CCc1ccccc1)Nc1ccc(S(=O)(=O)Nc2nccs2)cc1
[19]
  activity change, negative = cytotoxicity: inactive: 14.4%
[20]
  activation: inactive: 9.8% [at 30.8 µM]

## COC(=O)c1c(-c2cc(OC)c(OC)c(OC)c2)c2ccc(OCc3ccccn3)cc2c(=O)n1-c1ccc(N)cc1
[21]
  Potency: inactive
[22]
  Potency: active: 3.16 µM
[23]
  Potency: inconclusive [inhibitor, partial curve]
[1]
  Potency: inconclusive [inhibitor, partial curve]
[9]
  Potency: inconclusive [inhibitor, full curve]
[24]
  Potency: inactive
[18]
  Potency: active: 7.38 µM
[13]
  Potency: active: 9.28 µM

## Cc1cccc(Cn2cc(SCC(=O)Nc3nccs3)c3ccccc32)c1
[25]
  Potency: active: 2.91 µM
[20]
  Potency: inconclusive [activator, partial curve, poor fit]

## Cc1cccc(N=C2NC(=O)/C(=C/C=C/c3ccco3)S2)c1C
[26]
  Potency: active: 15.2 µM
[20]
  Potency: inconclusive [activator, full curve, poor fit]
